Measurements reported in the supplement of paper PMC7125110.
± gives the standard error. Variants at the floor of the assay are shown more often than the library holds them.

B1: glmS ribozyme (parent)
chain: AUAAAAGCGCCAGAACUACAGAAAUGUAGUUGACGAGGAGGAGGUUUAUCGAAUUUUCGGCGGAUGCCUCCAAA

Tests used:
Conditions in all cases: with glucosamine-6-phosphate
glucosamine-6-phosphate [1] = variants of: B1; experiment: self-cleavage kobs at 640 uM GlcN6P; higher = faster cleavage; RNA array
Summary of the method: (§1)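 Sequenced MiSeq chips were the platform: E. coli RNA polymerase transcribed barcoded ribozyme variants on them in situ, and a hybridised Cy3 probe tracked these at 37 °C. After glucosamine-6-phosphate (40 μM to 10 mM) in HEPES/KCl/Mg(OAc)2 buffer was flowed in, tiles were imaged over ~14 h. Signals normalised to baseline and to non-cleaving reference variants were reduced to per-tile medians and fit to one- or two-exponential decays to obtain kobs. kcat and KM were derived through weighted Michaelis–Menten fits across concentrations.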

glucosamine-6-phosphate [2] = variants of: B1; experiment: self-cleavage kobs at 160 uM GlcN6P; higher = faster cleavage; RNA array
Summary of the method: as §1

glucosamine-6-phosphate [3] = variants of: B1; experiment: self-cleavage kobs at 2500 uM GlcN6P; higher = faster cleavage; RNA array
Summary of the method: as §1

glucosamine-6-phosphate [4] = variants of: B1; experiment: self-cleavage kobs at 10000 uM GlcN6P; higher = faster cleavage; RNA array
Summary of the method: as §1

Variant | self-cleavage kobs at 640 uM GlcN6P (glucosamine-6-phosphate [1]) | self-cleavage kobs at 160 uM GlcN6P (glucosamine-6-phosphate [2]) | self-cleavage kobs at 2500 uM GlcN6P (glucosamine-6-phosphate [3]) | self-cleavage kobs at 10000 uM GlcN6P (glucosamine-6-phosphate [4])
A14G A39G U69A | 0.000936 ± 0.00031 s⁻¹ | 0.000285 ± 7.7e-05 s⁻¹ | 0.000786 ± 0.00024 s⁻¹ | –
A14G C16U U45A G51U C61G | < 1e-05 s⁻¹ | – | – | –
A14G C34A | < 1e-05 s⁻¹ | < 1e-05 s⁻¹ | – | –
A14G C34U | < 1e-05 s⁻¹ | – | – | < 1e-05 s⁻¹
A14G G29U U47G C70G | 0.000119 ± 3.1e-05 s⁻¹ | – | 6.72e-05 ± 1.5e-05 s⁻¹ | 0.000118 ± 2.8e-05 s⁻¹
A14G G38C G44A | < 1e-05 s⁻¹ | – | < 1e-05 s⁻¹ | < 1e-05 s⁻¹
A14G G38U A52C U55G | < 1e-05 s⁻¹ | – | – | –
A14U A33C C71G | < 1e-05 s⁻¹ | – | – | –
A14U A42C | < 1e-05 s⁻¹ | < 1e-05 s⁻¹ | < 1e-05 s⁻¹ | < 1e-05 s⁻¹
A14U A42C A64C | < 1e-05 s⁻¹ | – | < 1e-05 s⁻¹ | < 1e-05 s⁻¹
A14U A48U G51A A52G | < 1e-05 s⁻¹ | – | < 1e-05 s⁻¹ | –
A14U A52G | 7.16e-05 ± 1e-05 s⁻¹ | 5.44e-05 ± 1.7e-05 s⁻¹ | 0.000166 ± 1.6e-05 s⁻¹ | 0.000325 ± 4.4e-05 s⁻¹
A14U C61A G66A | < 1e-05 s⁻¹ | – | – | –
A14U G43C | < 1e-05 s⁻¹ | – | < 1e-05 s⁻¹ | < 1e-05 s⁻¹
A14U G62U U69A | < 1e-05 s⁻¹ | – | – | –
A14U U30A C34G | < 1e-05 s⁻¹ | – | – | –
A14U U31G A39C | 0.000117 ± 2.6e-05 s⁻¹ | 5.41e-05 ± 2e-05 s⁻¹ | – | –
A14U U45A C61U C70G | < 1e-05 s⁻¹ | – | – | –
A15C A33G U45A G63C | < 1e-05 s⁻¹ | – | – | –
A15C A64U | < 1e-05 s⁻¹ | < 1e-05 s⁻¹ | – | –
A15C C16U U45A | 0.000911 ± 0.00018 s⁻¹ | – | 0.00147 ± 0.00058 s⁻¹ | –
A15C G29U A39U G59U C70U | < 1e-05 s⁻¹ | – | < 1e-05 s⁻¹ | –
A15C G38U G44A | < 1e-05 s⁻¹ | – | < 1e-05 s⁻¹ | –
A15C G41U A52G C71G | < 1e-05 s⁻¹ | – | < 1e-05 s⁻¹ | –
A15C U30A G40C C61U | < 1e-05 s⁻¹ | – | < 1e-05 s⁻¹ | –
A15C U30G U31G | 0.0146 ± 0.0069 s⁻¹ | 0.00201 ± 0.00083 s⁻¹ | 0.00946 ± 0.0035 s⁻¹ | –
A15C U46C | 0.000119 ± 1.9e-05 s⁻¹ | – | 0.000176 ± 2.5e-05 s⁻¹ | 0.000295 ± 4.8e-05 s⁻¹
A15C U56C | 0.000202 ± 3.2e-05 s⁻¹ | 8.66e-05 ± 1.7e-05 s⁻¹ | 0.000708 ± 9.2e-05 s⁻¹ | 0.000914 ± 9.9e-05 s⁻¹

Variant | self-cleavage kobs at 640 uM GlcN6P (glucosamine-6-phosphate [1]) | self-cleavage kobs at 160 uM GlcN6P (glucosamine-6-phosphate [2]) | self-cleavage kobs at 2500 uM GlcN6P (glucosamine-6-phosphate [3]) | self-cleavage kobs at 10000 uM GlcN6P (glucosamine-6-phosphate [4])
A15C U65A | 0.000177 ± 2.9e-05 s⁻¹ | 3.48e-05 ± 1.4e-05 s⁻¹ | 0.000234 ± 5.7e-05 s⁻¹ | 0.000807 ± 0.00016 s⁻¹
A15G A33U A42C | < 1e-05 s⁻¹ | – | – | –
A15G A33U U45G G63A U69G | < 1e-05 s⁻¹ | < 1e-05 s⁻¹ | – | –
A15G A39C G60C C70A | < 1e-05 s⁻¹ | – | < 1e-05 s⁻¹ | –
A15G A53U G60U | < 1e-05 s⁻¹ | < 1e-05 s⁻¹ | < 1e-05 s⁻¹ | –
A15G C16A A39U G62C | < 1e-05 s⁻¹ | – | < 1e-05 s⁻¹ | –
A15G C16G U55A | 0.000405 ± 0.00011 s⁻¹ | 0.000205 ± 6e-05 s⁻¹ | – | –
A15G G35C A42U C50G C68A C71U | < 1e-05 s⁻¹ | – | < 1e-05 s⁻¹ | –
A15G G38U G59C | < 1e-05 s⁻¹ | – | – | –
A15G U49G G63U | < 1e-05 s⁻¹ | – | – | –
A15G U56C C67G C70A | < 1e-05 s⁻¹ | – | < 1e-05 s⁻¹ | –
A15U A42C C70A | < 1e-05 s⁻¹ | – | < 1e-05 s⁻¹ | –
A15U A53G G63C | < 1e-05 s⁻¹ | – | – | –
A15U C34A G35U A36U | < 1e-05 s⁻¹ | – | – | –
A15U C34A G63U | < 1e-05 s⁻¹ | – | – | –
A15U G32C | 3.14e-05 ± 7.2e-06 s⁻¹ | – | 6.49e-05 ± 8.6e-06 s⁻¹ | 0.000112 ± 9.6e-06 s⁻¹
A15U G35C G38U U45G U54G | < 1e-05 s⁻¹ | < 1e-05 s⁻¹ | – | < 1e-05 s⁻¹
A15U G37C A39G G41U | < 1e-05 s⁻¹ | – | < 1e-05 s⁻¹ | –
A15U G37C U47A | < 1e-05 s⁻¹ | – | – | –
A15U G38C G43C G51U | < 1e-05 s⁻¹ | < 1e-05 s⁻¹ | – | < 1e-05 s⁻¹
A15U U46C | 0.000111 ± 1.1e-05 s⁻¹ | 2.98e-05 ± 1.3e-05 s⁻¹ | – | –
A15U U46G A53U C67U | 6.64e-05 ± 1.4e-05 s⁻¹ | – | – | –
C16A A36C A52U | < 1e-05 s⁻¹ | – | – | –
C16A A39U U54C | 0.000107 ± 2.9e-05 s⁻¹ | – | 0.000434 ± 9.7e-05 s⁻¹ | 0.000811 ± 0.00017 s⁻¹
C16A A52G G63U G66U | < 1e-05 s⁻¹ | < 1e-05 s⁻¹ | – | –
C16A C71A | 7.22e-05 ± 1.1e-05 s⁻¹ | 3.26e-05 ± 1.3e-05 s⁻¹ | 0.000187 ± 3.1e-05 s⁻¹ | 0.000114 ± 1.2e-05 s⁻¹
C16A G32A C70G | 7.42e-05 ± 3e-05 s⁻¹ | – | – | 0.000127 ± 3.4e-05 s⁻¹
